In all, about 310,000 compounds went through this assay and about 2,200 (0.71%) showed an effect of 50% or more. Effects have a minus sign here. The list shows a part of the results.
What follows are compounds tested against human ether-à-go-go-related gene (hERG) potassium channel (human, UniProt Q12809) (assay: primary screen, population patch clamp on CHO cells stably expressing hERG).
Sequence of human ether-à-go-go-related gene (hERG) potassium channel (Q12809 whole entry, looked up): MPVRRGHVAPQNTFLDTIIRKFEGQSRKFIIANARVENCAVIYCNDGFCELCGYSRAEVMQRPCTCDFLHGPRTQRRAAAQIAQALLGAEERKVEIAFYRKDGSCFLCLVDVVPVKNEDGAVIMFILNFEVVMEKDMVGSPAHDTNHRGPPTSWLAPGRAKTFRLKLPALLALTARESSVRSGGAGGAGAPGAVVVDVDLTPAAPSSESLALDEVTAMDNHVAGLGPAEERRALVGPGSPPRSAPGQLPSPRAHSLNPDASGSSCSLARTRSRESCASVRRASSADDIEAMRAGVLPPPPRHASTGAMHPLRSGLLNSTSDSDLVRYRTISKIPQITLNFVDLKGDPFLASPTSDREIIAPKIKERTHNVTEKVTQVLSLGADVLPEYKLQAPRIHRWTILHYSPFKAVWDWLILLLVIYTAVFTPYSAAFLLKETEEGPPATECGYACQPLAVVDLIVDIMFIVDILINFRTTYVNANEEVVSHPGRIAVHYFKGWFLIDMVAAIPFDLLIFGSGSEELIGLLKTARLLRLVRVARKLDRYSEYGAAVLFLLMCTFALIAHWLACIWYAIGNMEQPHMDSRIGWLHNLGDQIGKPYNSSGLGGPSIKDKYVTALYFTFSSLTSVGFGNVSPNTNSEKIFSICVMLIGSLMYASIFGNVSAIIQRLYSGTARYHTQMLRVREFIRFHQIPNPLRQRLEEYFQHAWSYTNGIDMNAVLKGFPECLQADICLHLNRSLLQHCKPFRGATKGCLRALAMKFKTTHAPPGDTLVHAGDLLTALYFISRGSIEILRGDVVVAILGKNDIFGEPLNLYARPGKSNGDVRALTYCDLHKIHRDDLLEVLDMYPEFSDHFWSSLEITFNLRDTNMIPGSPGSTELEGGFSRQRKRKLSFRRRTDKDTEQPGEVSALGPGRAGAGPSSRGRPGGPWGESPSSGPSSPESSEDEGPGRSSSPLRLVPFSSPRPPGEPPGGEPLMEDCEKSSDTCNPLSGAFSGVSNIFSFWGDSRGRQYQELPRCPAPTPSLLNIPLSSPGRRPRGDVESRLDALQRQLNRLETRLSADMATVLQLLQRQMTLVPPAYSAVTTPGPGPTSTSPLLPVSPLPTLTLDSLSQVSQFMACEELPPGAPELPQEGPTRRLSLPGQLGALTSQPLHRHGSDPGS

Row | Compound | hERG current change (%, negative = inhibition) at 1uM [%]
1 | CCOC(=O)c1sc2ncnc(N3CCN(CC)CC3)c2c1C | -9.54
2 | CN(C)C(=O)/C(=C\c1ccc(-c2cccc([N+](=O)[O-])c2)o1)NC(=O)c1ccccc1 | -30.1
3 | COc1ccc(NC(=O)C(c2ccc(OC)cc2)N(C)C(=O)Cc2cccs2)cc1 (stereo not shown) | 0.764
4 | Cc1nc(NC(=O)c2ccc3c(c2)OCO3)ccc1Br | 11
5 | COc1ccc(S(=O)(=O)Nc2c(C)ccc3nsnc23)cc1OC | -0.479
6 | COc1cc2c(cc1OC)C1=C(C#N)CCC(=NC(=O)c3ccc(Cl)cc3)N1CC2 | 10.4
7 | Cc1cc(OC(F)F)ccc1NC(=O)Nc1ccc2c(c1)OCO2 | 7.92
8 | CCCCc1nc(NCCNC(=O)c2ccco2)c(C#N)c2c1CSC(C)(C)C2 | 8.24
9 | O=C(O)c1ccc(CNC(=S)Nc2ccccc2)cc1 | 17.2
10 | Cc1oc(C(=O)O)cc1COc1cccc2ccccc12 | 17.7
11 | CCN(CC)S(=O)(=O)c1ccc(NC(=O)Cc2cccs2)cc1 | 16.2
12 | Cc1ccc2[nH]c(=O)c(CNC(C)(C)C)cc2c1 | -2.84
13 | COc1ccc(N(CC(=O)Nc2cccc(C)c2)S(=O)(=O)c2c(C)n[nH]c2C)cc1 | 9.89
14 | CN(C)CCCNc1oc(-c2cccc(Cl)c2)nc1C#N | -1.51
15 | CCN(CC(=O)Nc1cccc(F)c1)Cc1nc2ccccc2c(=O)[nH]1 | -5.69
16 | CCC(CC)c1nc(C(N)=O)c2[nH]c(=O)n(-c3ccc(OC)c(OC)c3)c2n1 | 5.43
17 | O=C(OCc1nnc(-c2ccc([N+](=O)[O-])cc2)o1)C1CC(=O)N(CCc2ccccc2)C1 (stereo not shown) | -17.8
18 | CCc1noc(C)c1C(=O)Nc1ccc(S(=O)(=O)N2CCC(C)CC2)cc1 | 6.53
19 | Cc1cc(C)n(-c2nc(SCC(=O)Nc3nccs3)c3c4c(sc3n2)COC(C)(C)C4)n1 | 4.81
20 | O=C(CSc1nnc(NC(=O)C2CC(=O)N(c3ccccc3)C2)s1)NCc1ccco1 (stereo not shown) | 12
21 | CCOc1ccc(-n2cc(C(=O)N3CCN(C)CC3)c3cc(OC)c(OC)cc3c2=O)cc1 | 11.6
22 | CC(C)CCN1CC(C(=O)NCCC2=CCCCC2)CC1=O (stereo not shown) | 1.53

Row | Compound | hERG current change (%, negative = inhibition) at 1uM [%]
23 | Cc1ccc(-c2nnc(N3CCN(C(=O)Cn4c(=O)n(C)c5ccccc54)CC3)c3ccccc23)cc1 | -7.71
24 | Cc1sc2ncn(CC(=O)NCCCC(=O)N3CCN(c4ccccn4)CC3)c(=O)c2c1C | 6.08
25 | CCCCN1C(=O)c2ccc(C(=O)NC3(C)CCS(=O)(=O)C3)cc2C1=O (stereo not shown) | 2.04
26 | COc1ccc(C(=O)N2CCN(Cc3ccccc3C(F)(F)F)CC2)cc1.O=C(O)C(=O)O | 8.32
27 | CCOC(=O)N1CCN(C(=O)Nc2ccc3nccnc3c2)CC1 | 8.48
28 | CCC(=O)c1ccc(OCC(=O)Nc2nn3cnnc3s2)cc1 | 15.4
29 | COc1ccc(Br)cc1S(=O)(=O)n1nc(C)cc1C | 2.12
30 | COc1cc(C(=O)N[C@@H](C)C(=O)N2CCC3(CC2)NCCc2[nH]cnc23)cc(OC)c1OC | 15.3
31 | COc1cc(/C=C/C(=O)OCC(=O)N2CCCc3ccccc32)ccc1OCC#N | 14.6
32 | NC(=O)CC(NC(=O)Cc1ccc(Br)cc1)c1ccc(N2CCN(c3ccccc3)CC2)c([N+](=O)[O-])c1 (stereo not shown) | 4.29
33 | CCOC(=O)c1csc(NC(=O)CSc2nnnn2-c2ccc(OC)cc2)n1 | 8.86
34 | COC(=O)N/N=C/c1ccc([N+](=O)[O-])o1 | -1.05
35 | CCn1ncc(N(C)N)c(Cl)c1=O | 17.8
36 | COc1ccc(OC)c(C2C(C(C)=O)=C(O)C(=O)N2CCC(=O)O)c1 (stereo not shown) | 3.75
37 | Cc1ccc(SCC(=O)NCCSC(C)(C)C)cc1 | 9.33
38 | Cc1nc2ccc([N+](=O)[O-])cc2c(=O)n1Cc1ccc(Br)cc1 | 14.8
39 | CC1CCCN(C(=O)CSc2nnc(-c3c[nH]c4ccccc34)o2)C1 (stereo not shown) | 16.3
40 | CCN1C(=O)/C(=C/c2cc(C)n(C)c2C)SC1=Nc1ccc(OC)cc1 | 13.4
41 | CC1CCCN(CCCNC(=O)C2CCC(CNS(=O)(=O)c3cccc4nsnc34)CC2)C1 (stereo not shown) | -9.46
42 | CCC(C)(C)n1nnnc1C(c1cc2cc(C)cc(C)c2[nH]c1=O)N1CCN(C(=O)c2ccco2)CC1 (stereo not shown) | 13.5
43 | c1ccc(CCCOCCC2CO2)cc1 (stereo not shown) | 10.4
44 | CC(=O)Nc1cc2ccc(OC(C)=O)cc2oc1=O | 12.7

Row | Compound | hERG current change (%, negative = inhibition) at 1uM [%]
45 | COc1ccc(-c2cc(=O)[nH]c(N3CCN(Cc4ccccc4)CC3)n2)cc1 | 13
46 | Cc1ccc(-c2noc(CCC(=O)Nc3ccc4c(c3)OCO4)n2)cc1 | 10.6
47 | Cc1ccc(SCCNS(=O)(=O)c2ccc(F)cc2)cc1 | 15.6
48 | Cc1cccc(N/C(N)=N/c2nc(CSc3ccc(Cl)cc3)cc(=O)[nH]2)c1 | 10.7
49 | CCN(CC)CCOc1ccccc1OC.O=C(O)C(=O)O | 7.13
50 | CC(=O)N(C)c1ccc(NC(=S)Nc2cccc3ccccc23)cc1 | 11.4
51 | O=C(COC(=O)c1ccc2c(c1)C(=O)N(Cc1ccncc1)C2=O)Nc1cccc2ccccc12 | 6.71
52 | CCN(CC)CCN1C(=O)C(=O)/C(=C(/O)c2ccc(S(=O)(=O)N3CCOCC3)cc2)C1c1ccc(Cl)cc1 (stereo not shown) | 13.9
53 | CCc1nc2ccc(Cc3ccc4nc(CC)[nH]c4c3)cc2[nH]1 | 17.7
54 | COc1cccc(C(=O)Nc2nnc(S(=O)(=O)N3CCOCC3)s2)c1 | -2.84
55 | CC(C)NCC(O)COc1c(F)cc(Br)cc1F.Cl (stereo not shown) | 4.26
56 | Cc1ccc(Cn2c(SCC(=O)Nc3cc(C)on3)nc3ccccc3c2=O)cc1 | 10.7
57 | Cc1cc(C)cc(N2C(=O)C3CCCN3C2=S)c1 (stereo not shown) | 17.7
58 | Cc1ccc(-c2nc(-c3cccnc3)no2)cc1 | 2.83
59 | CCCC(=O)Nc1ccc(Cl)c(NC(=O)c2cccnc2)c1 | 18.3
60 | CCc1ccc(OCC(=O)NCCOc2ccccc2)cc1 | 3
61 | Cc1cc(SCC(=O)NC(=O)NCc2ccco2)nc2c(C)cccc12 | -1.05
62 | Cc1cc(C(=O)N2CCCC2C(=O)O)c(C)o1 (stereo not shown) | 5.23
63 | COc1cc(C2SCC(=O)N2c2nnc(C34CC5CC(CC(C5)C3)C4)s2)cc(OC)c1OC (stereo not shown) | 2.93
64 | Cn1c(=O)c2c(ncn2CC(=O)NC2CCCCC2)n(C)c1=O | 8.25
65 | CC(C)(C)c1ccc(Oc2ccc(NC(=O)c3ccco3)cn2)cc1 | 5.19
66 | CC(=O)Nc1ccccc1NS(=O)(=O)c1ccccc1[N+](=O)[O-] | 8.77

Row | Compound | hERG current change (%, negative = inhibition) at 1uM [%]
67 | Cc1cc(C)c(S(=O)(=O)NC2CC(C)(C)NC(C)(C)C2)cc1C | 2.32
68 | Cc1cc(C(=O)NCCc2ccc(S(N)(=O)=O)cc2)no1 | 14.7
69 | Cc1ccc(-c2csc(NC(=O)Cc3cccs3)n2)cc1C | 9.09
70 | Cc1cccc(Nc2nc(-c3ccccn3)cs2)n1 | 18
71 | Cc1ccc(-c2csc(NC(=O)/C=C/c3ccco3)c2C(=O)O)cc1 | 15.7
72 | CC(C)(C)n1nnnc1C(c1cccc(C#N)c1)N1CCCc2ccccc21 (stereo not shown) | 11.9
73 | Clc1ccc(C2NCCc3[nH]cnc32)cc1 (stereo not shown) | 13.6
74 | COc1ccc(NC(=O)CC(C)C)c([N+](=O)[O-])c1 | 1.74
75 | Cc1ccc(-c2nnn(CC(=O)N(c3cccc(F)c3)C(C(=O)NC3CCCC3)c3ccncc3)n2)o1 (stereo not shown) | 15.5
76 | CCCNC(=O)N[C@@H](CCSC)C(=O)OC | 11.3
77 | O=C(Nc1ccc(Oc2ccc(NC(=O)Nc3ccccc3Cl)cc2)cc1)Nc1ccccc1Cl | 14.8
78 | COC(=O)C1=C(c2ccc(F)cc2OCc2ccccc2)C[C@@H]2CC[C@H]1N2C(=O)NCc1ccc(F)cc1 | 13.2
79 | COc1cc(OC)nc(Oc2ccccc2/C=N/O)n1 | 12
80 | O=C(Nc1ccncc1)OCc1ccccc1 | 16.9
81 | CCOC(=O)CC(=O)CSc1nc(C)cc(C)c1C#N | 6.43
82 | CSc1ccc(/C=N/n2c(Cc3ccc(Br)cc3)n[nH]c2=S)cc1 | -2.74
83 | CCOc1ccccc1CNCCO.Cl | 18.7
84 | CC(C(=O)N1CCc2ccccc21)N1CCN(c2cccc(C(F)(F)F)c2)CC1 (stereo not shown) | -1.93
85 | COC(=O)c1cc2ccsc2n1CC(=O)Nc1ccc(N(C)C)cc1 | 5.25
86 | COc1ccc(NC(=O)OC(CN2CCCCC2)C(F)(F)F)cc1 (stereo not shown) | 9.93
87 | CCN(CC)S(=O)(=O)c1ccc(OC)c(NC(=S)Nc2ccc(C)c(C)c2)c1 | 14.5
88 | CC(C)(O)C#Cc1ccc(C(=O)NC2CCCCC2)s1 | 8.66

Source: publication PMC4336329 (PLoS ONE, 2015)
